# From the supplement of paper PMC8728848
# Some of the results follow.
# B1: CFEM-PPm (Pichia pastoris), F2QPV1 (protein)
# chain: AVATPPACLLACAAEVVKESSDCDALNNIQCICENEGSAIHACLESTCPDGLSSTALQSFEDVCE
# Legend:
# Assay in all cases: glycan array binding signal (z-score within array); higher = stronger binding
# Conditions in all cases: glycan notation: IUPAC condensed, linker removed
# [1] = molecular target: Neu5Ac(a2-3)Gal6S(b1-4)[Fuc(a1-3)]GlcNAc
# Procedure, shortened: (§1)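 From the Consortium for Functional Glycomics database, 3228 arrays were curated, keeping only those whose protein sequence was available. Binding is given as a within-array Z-score averaged across arrays sharing a protein sequence and across linkers. Negative Z-scores can be read as non-binding.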
# Neu5Ac(a2-3)GalNAc = molecular target: Neu5Ac(a2-3)GalNAc
# Procedure, shortened: as §1
# [2] = molecular target: Neu5Ac(a2-3)GalNAc(b1-4)GlcNAc
# Procedure, shortened: as §1
# [3] = molecular target: Neu5Ac(a2-3)[GalNAc(b1-4)]Gal(b1-4)Glc
# Procedure, shortened: as §1
# [4] = molecular target: Neu5Ac(a2-3)[GalNAc(b1-4)]Gal(b1-4)GlcNAc
# Procedure, shortened: as §1
# [5] = molecular target: Neu5Ac(a2-3)[GalNAc(b1-4)]Gal(b1-4)GlcNAc(b1-3)GalNAc
# Procedure, shortened: as §1
# [6] = molecular target: Neu5Ac(a2-3)[Neu5Ac(a2-6)]GalNAc
# Procedure, shortened: as §1
# Neu5Ac(a2-6)Gal = molecular target: Neu5Ac(a2-6)Gal
# Procedure, shortened: as §1
# [7] = molecular target: Neu5Ac(a2-6)Gal(b1-3)GlcNAc(b1-3)[Gal(b1-4)GlcNAc(b1-6)]Gal(b1-4)Glc
# Procedure, shortened: as §1
# Neu5Ac(a2-6)Gal(b1-4)Glc = molecular target: Neu5Ac(a2-6)Gal(b1-4)Glc
# Procedure, shortened: as §1
# [8] = molecular target: Neu5Ac(a2-6)Gal(b1-4)GlcNAc
# Procedure, shortened: as §1
# [9] = molecular target: Neu5Ac(a2-6)Gal(b1-4)GlcNAc(b1-2)Man
# Procedure, shortened: as §1
# [10] = molecular target: Neu5Ac(a2-6)Gal(b1-4)GlcNAc(b1-2)Man(a1-3)Man(b1-4)GlcNAc(b1-4)GlcNAc
# Procedure, shortened: as §1
# [11] = molecular target: Neu5Ac(a2-6)Gal(b1-4)GlcNAc(b1-2)Man(a1-3)[Gal(b1-4)GlcNAc(b1-2)Man(a1-6)]Man(b1-4)GlcNAc(b1-4)GlcNAc
# Procedure, shortened: as §1
# [12] = molecular target: Neu5Ac(a2-6)Gal(b1-4)GlcNAc(b1-2)Man(a1-3)[GlcNAc(b1-2)Man(a1-6)]Man(b1-4)GlcNAc(b1-4)GlcNAc
# Procedure, shortened: as §1
# [13] = molecular target: Neu5Ac(a2-6)Gal(b1-4)GlcNAc(b1-2)Man(a1-3)[GlcNAc(b1-4)][Neu5Ac(a2-6)Gal(b1-4)GlcNAc(b1-2)Man(a1-6)]Man(b1-4)GlcNAc(b1-4)GlcNAc
# Procedure, shortened: as §1
# [14] = molecular target: Neu5Ac(a2-6)Gal(b1-4)GlcNAc(b1-2)Man(a1-3)[Man(a1-6)]Man(b1-4)GlcNAc(b1-4)GlcNAc
# Procedure, shortened: as §1
# [15] = molecular target: Neu5Ac(a2-6)Gal(b1-4)GlcNAc(b1-2)Man(a1-3)[Neu5Ac(a2-3)Gal(b1-4)GlcNAc(b1-2)Man(a1-6)]Man(b1-4)GlcNAc(b1-4)GlcNAc
# Procedure, shortened: as §1
# [16] = molecular target: Neu5Ac(a2-6)Gal(b1-4)GlcNAc(b1-2)Man(a1-3)[Neu5Ac(a2-6)Gal(b1-4)GlcNAc(b1-2)Man(a1-6)]Man(b1-4)GlcNAc(b1-4)GlcNAc
# Procedure, shortened: as §1
# [17] = molecular target: Neu5Ac(a2-6)Gal(b1-4)GlcNAc(b1-2)Man(a1-3)[Neu5Ac(a2-6)Gal(b1-4)GlcNAc(b1-2)Man(a1-6)]Man(b1-4)GlcNAc(b1-4)[Fuc(a1-6)]GlcNAc
# Procedure, shortened: as §1
# [18] = molecular target: Neu5Ac(a2-6)Gal(b1-4)GlcNAc(b1-2)Man(a1-6)Man(b1-4)GlcNAc(b1-4)GlcNAc
# Procedure, shortened: as §1
# [19] = molecular target: Neu5Ac(a2-6)Gal(b1-4)GlcNAc(b1-2)Man(a1-6)[Gal(b1-4)GlcNAc(b1-2)Man(a1-3)]Man(b1-4)GlcNAc(b1-4)GlcNAc
# Procedure, shortened: as §1
# [20] = molecular target: Neu5Ac(a2-6)Gal(b1-4)GlcNAc(b1-2)Man(a1-6)[GlcNAc(b1-2)Man(a1-3)]Man(b1-4)GlcNAc(b1-4)GlcNAc
# Procedure, shortened: as §1
# [21] = molecular target: Neu5Ac(a2-6)Gal(b1-4)GlcNAc(b1-2)Man(a1-6)[Man(a1-3)]Man(b1-4)GlcNAc(b1-4)GlcNAc
# Procedure, shortened: as §1
# [22] = molecular target: Neu5Ac(a2-6)Gal(b1-4)GlcNAc(b1-2)[Neu5Ac(a2-6)Gal(b1-4)GlcNAc(b1-4)]Man(a1-3)[GlcNAc(b1-4)][Neu5Ac(a2-6)Gal(b1-4)GlcNAc(b1-2)[Neu5Ac(a2-6)Gal(b1-4)GlcNAc(b1-6)]Man(a1-6)]Man(b1-4)GlcNAc(b1-4)GlcNAc
# Procedure, shortened: as §1
# [23] = molecular target: Neu5Ac(a2-6)Gal(b1-4)GlcNAc(b1-2)[Neu5Ac(a2-6)Gal(b1-4)GlcNAc(b1-4)]Man(a1-3)[GlcNAc(b1-4)][Neu5Ac(a2-6)Gal(b1-4)GlcNAc(b1-4)Man(a1-6)]Man(b1-4)GlcNAc(b1-4)GlcNAc
# Procedure, shortened: as §1
# [24] = molecular target: Neu5Ac(a2-6)Gal(b1-4)GlcNAc(b1-2)[Neu5Ac(a2-6)Gal(b1-4)GlcNAc(b1-6)]Man(a1-6)[Neu5Ac(a2-6)Gal(b1-4)GlcNAc(b1-2)Man(a1-3)][GlcNAc(b1-4)]Man(b1-4)GlcNAc(b1-4)GlcNAc
# Procedure, shortened: as §1
# [25] = molecular target: Neu5Ac(a2-6)Gal(b1-4)GlcNAc(b1-3)Gal(b1-3)GlcNAc
# Procedure, shortened: as §1
# [26] = molecular target: Neu5Ac(a2-6)Gal(b1-4)GlcNAc(b1-3)Gal(b1-4)GlcNAc
# Procedure, shortened: as §1
# [27] = molecular target: Neu5Ac(a2-6)Gal(b1-4)GlcNAc(b1-3)Gal(b1-4)GlcNAc(b1-2)Man(a1-3)[Neu5Ac(a2-6)Gal(b1-4)GlcNAc(b1-3)Gal(b1-4)GlcNAc(b1-2)Man(a1-6)]GalNAc
# Procedure, shortened: as §1
# [28] = molecular target: Neu5Ac(a2-6)Gal(b1-4)GlcNAc(b1-3)Gal(b1-4)GlcNAc(b1-3)Gal(b1-4)GlcNAc
# Procedure, shortened: as §1
# [29] = molecular target: Neu5Ac(a2-6)Gal(b1-4)GlcNAc(b1-3)Gal(b1-4)GlcNAc(b1-3)Gal(b1-4)GlcNAc(b1-2)Man(a1-3)[Neu5Ac(a2-6)Gal(b1-4)GlcNAc(b1-3)Gal(b1-4)GlcNAc(b1-3)Gal(b1-4)GlcNAc(b1-2)Man(a1-6)]GalNAc
# Procedure, shortened: as §1
# [30] = molecular target: Neu5Ac(a2-6)Gal(b1-4)GlcNAc(b1-3)Gal(b1-4)GlcNAc(b1-3)GalNAc
# Procedure, shortened: as §1
# [31] = molecular target: Neu5Ac(a2-6)Gal(b1-4)GlcNAc(b1-3)Gal(b1-4)GlcNAc(b1-3)[Neu5Ac(a2-6)Gal(b1-4)GlcNAc(b1-3)Gal(b1-4)GlcNAc(b1-6)]GalNAc
# Procedure, shortened: as §1
# [32] = molecular target: Neu5Ac(a2-6)Gal(b1-4)GlcNAc(b1-3)Gal(b1-4)GlcNAc(b1-6)[Gal(b1-3)]GalNAc
# Procedure, shortened: as §1
# [33] = molecular target: Neu5Ac(a2-6)Gal(b1-4)GlcNAc(b1-3)Gal(b1-4)[Fuc(a1-3)]GlcNAc(b1-3)Gal(b1-4)[Fuc(a1-3)]GlcNAc
# Procedure, shortened: as §1
# [34] = molecular target: Neu5Ac(a2-6)Gal(b1-4)GlcNAc(b1-3)GalNAc
# Procedure, shortened: as §1
# [35] = molecular target: Neu5Ac(a2-6)Gal(b1-4)GlcNAc(b1-3)[Neu5Ac(a2-6)Gal(b1-4)GlcNAc(b1-6)]GalNAc
# Procedure, shortened: as §1
# [36] = molecular target: Neu5Ac(a2-6)Gal(b1-4)GlcNAc(b1-6)GalNAc
# Procedure, shortened: as §1
# [37] = molecular target: Neu5Ac(a2-6)Gal(b1-4)GlcNAc(b1-6)[Gal(b1-3)GlcNAc(b1-3)]Gal(b1-4)Glc
# Procedure, shortened: as §1
# [38] = molecular target: Neu5Ac(a2-6)Gal(b1-4)GlcNAc(b1-6)[Gal(b1-3)]GalNAc
# Procedure, shortened: as §1
# [39] = molecular target: Neu5Ac(a2-6)Gal(b1-4)GlcNAc6S
# Procedure, shortened: as §1
# Neu5Ac(a2-6)GalNAc = molecular target: Neu5Ac(a2-6)GalNAc
# Procedure, shortened: as §1
# [40] = molecular target: Neu5Ac(a2-6)GalNAc(b1-4)GlcNAc
# Procedure, shortened: as §1
# [41] = molecular target: Neu5Ac(a2-6)GalNAc(b1-4)GlcNAc6S
# Procedure, shortened: as §1
binder,measurement,setting,value
B1,glycan array binding signal (z-score),[1],-0.32
same,glycan array binding signal (z-score),Neu5Ac(a2-3)GalNAc,-0.245
same,glycan array binding signal (z-score),[2],-0.26
same,glycan array binding signal (z-score),[3],-0.369
same,glycan array binding signal (z-score),[4],-0.318
same,glycan array binding signal (z-score),[5],-0.344
same,glycan array binding signal (z-score),[6],-0.168
same,glycan array binding signal (z-score),Neu5Ac(a2-6)Gal,-0.251
same,glycan array binding signal (z-score),[7],-0.189
same,glycan array binding signal (z-score),Neu5Ac(a2-6)Gal(b1-4)Glc,-0.214
same,glycan array binding signal (z-score),[8],-0.345
same,glycan array binding signal (z-score),[9],-0.275
same,glycan array binding signal (z-score),[10],-0.215
same,glycan array binding signal (z-score),[11],-0.322
same,glycan array binding signal (z-score),[12],-0.439
same,glycan array binding signal (z-score),[13],-0.394
same,glycan array binding signal (z-score),[14],-0.253
same,glycan array binding signal (z-score),[15],-0.378
same,glycan array binding signal (z-score),[16],-0.193
same,glycan array binding signal (z-score),[17],-0.204
same,glycan array binding signal (z-score),[18],-0.399
same,glycan array binding signal (z-score),[19],-0.317
same,glycan array binding signal (z-score),[20],-0.363
same,glycan array binding signal (z-score),[21],-0.345
same,glycan array binding signal (z-score),[22],-0.249
same,glycan array binding signal (z-score),[23],-0.327
same,glycan array binding signal (z-score),[24],-0.267
same,glycan array binding signal (z-score),[25],-0.415
same,glycan array binding signal (z-score),[26],-0.288
same,glycan array binding signal (z-score),[27],-0.081
same,glycan array binding signal (z-score),[28],-0.344
same,glycan array binding signal (z-score),[29],0.656
same,glycan array binding signal (z-score),[30],-0.303
same,glycan array binding signal (z-score),[31],-0.23
same,glycan array binding signal (z-score),[32],0.617
same,glycan array binding signal (z-score),[33],-0.281
same,glycan array binding signal (z-score),[34],-0.168
same,glycan array binding signal (z-score),[35],0.043
same,glycan array binding signal (z-score),[36],0.356
same,glycan array binding signal (z-score),[37],-0.178
same,glycan array binding signal (z-score),[38],0.637
same,glycan array binding signal (z-score),[39],-0.208
same,glycan array binding signal (z-score),Neu5Ac(a2-6)GalNAc,-0.353
same,glycan array binding signal (z-score),[40],-0.32
same,glycan array binding signal (z-score),[41],-0.184
